Values joined by “and” are separate entries in the source; they are usually repeats but may differ in a detail not shown here. Equal entries are not always repeated. In all, about 310,000 compounds went through this assay and about 11,000 (3.5%) were called active. The inconclusive results got no clear call from the source; some entries with a clear call stand among them for comparison. Calls come from the whole dose curve; as a rule, active = well fitted inhibition curve with a large enough effect; inconclusive = small, poorly fitted or top-dose-only effect, or effect the other way; inactive = flat fitted curve, though single readings scatter. Potencies of inconclusive entries are left out as doubtful fits.
test: VP16 counterscreen qHTS for inhibitors of ROR gamma transcriptional activity; conditions: Drosophila S2 Gal4-VP16 UAS-luciferase, luminescence, 20 h; activity, negative = inhibition: at 53.6 µM (top of the series);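 note: Gal4-VP16 expression switched on by copper sulfate through the metallothionein promoter; nearly all actives have a fitted effect of over 50% in size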
% is set by controls: 0 for no effect and ±100 for the full control effect; potency is the fitted concentration of half-maximal effect; tags give direction and shape of the fitted curve.

Compound | Potency | activity, negative = inhibition
CN(C(=O)Nc1cnc2ccccc2c1)c1ccccc1 | inconclusive [activator, full curve, poor fit] | –
O=C(c1ccco1)N1CCN(Cc2nnc(-c3ccccc3F)o2)CC1 | inconclusive [inhibitor, single point] | –
CC(=O)Nc1ccc(S(=O)(=O)N2CCN=C2SCc2ccc([N+](=O)[O-])cc2)cc1 | inconclusive [inhibitor, single point] | –
Cc1ccccc1-c1cc(-c2ccccc2O)n[nH]1 | inconclusive [inhibitor, single point] | –
CC(C)c1ccc(C(=O)NC(=S)NCc2cccnc2)cc1 | inconclusive [inhibitor, single point] | –
Cc1ccc(Cl)cc1N(CC(=O)NC(C)c1ccccc1)S(C)(=O)=O (stereo not drawn) | – | inactive: -8.98%
CCOc1nc(NCc2ccco2)nc(Nc2ccc(OC)cc2)n1 | inconclusive [inhibitor, single point] | –
Cc1ccc(-n2cc(CNCCc3ncc(C)[nH]3)c(-c3ccc(F)cc3)n2)cc1 | inconclusive [inhibitor, single point] | –
CCS(=O)(=O)c1nc(S(=O)(=O)c2ccc(Cl)cc2)c(N2CCC(C(N)=O)CC2)s1 | – | inactive: -6.4%
COc1cc(OC)c(NS(=O)(=O)c2coc(C(N)=O)c2)cc1Cl | inconclusive [inhibitor, single point] | –
O=C(Nc1ccnn1C1CCN(C(=O)c2cccc(C(F)(F)F)c2)CC1)C1CC1 | – | inactive: 8.83%
CC(=Nc1ccc(C)c(C)c1)C1=C(O)CCC1=O | inconclusive [activator, partial curve] | –
C=C1C(=O)C=C2CN(C(=O)c3ccccc3)[C@@](Cc3ccc(F)cc3)(C(=O)OC)[C@@H]12 | active: 891 nM and active: 1.41 µM | –
C(=N\Nc1nc2ccccc2s1)/c1ccc2c(c1)OCO2 | active: 7.08 µM | –
CC(C1CC1)N(Cc1ccccc1)C(=S)Nc1ccccc1Cl (stereo not drawn) | inconclusive [inhibitor, single point] | –
CC1(C)CC2=C(CO1)C(=S)NC(c1ccccc1)N2CC1CCCO1 (stereo not drawn) | inconclusive [inhibitor, single point] | –
Cc1ccc(CC(=O)O/N=C(\N)Cc2ccc([N+](=O)[O-])cc2)cc1 | inconclusive [inhibitor, single point] | –
Cc1cc(NCCc2ccc(Cl)cc2)n2ncnc2n1 | inconclusive [inhibitor, single point] | –
CCn1cc(C(=O)NCc2cccc(F)c2)c(=O)c2cc(F)c(N3CCN(C(=O)c4ccco4)CC3)cc21 | inconclusive [inhibitor, single point] | –
O=S(=O)(c1ccc(Cl)s1)N1CCN(C/C=C/c2ccccc2)CC1 | – | inactive: -6.96%
COc1ccc(NC(=O)C2CCCN(c3c4c(nc5ncnn35)CCC4)C2)cc1 (stereo not drawn) | inconclusive [inhibitor, single point] | –
Nc1ccc(NC(=O)NC2CCCCC2)cc1 | inconclusive [activator, partial curve, poor fit] | –
CC(=O)c1ccc(-n2c(CCC(=O)O)ccc2-c2cccs2)cc1 | inconclusive [inhibitor, single point] | –
C=CCNC(=S)NC(=O)c1oc2ccccc2c1C | inconclusive [inhibitor, single point] | –
O=C(NC(=S)Nc1ccc2c(c1)OCO2)c1ccccc1 | inconclusive [inhibitor, single point] | –

Compound | Potency | activity, negative = inhibition
Cn1c(SCc2ccccc2)nnc1-c1c[nH]c2ccccc12 | inconclusive [activator, partial curve] | –
CCC(O)c1cc2c(cc1NC(=O)c1ccc(C)cc1)OCCO2 (stereo not drawn) | inconclusive [activator, single point] | –
C/C(CC(C)(C)C1CCCCC1)=N\NC(N)=S | active: 2.82 µM | –
Cn1c(=O)c2c(nc(NCc3ccco3)n2Cc2ccccc2Cl)n(C)c1=O | active: 4.47 µM | –
CCC(C)(C)C1CCc2c(sc(N)c2C(N)=O)C1 (stereo not drawn) | inconclusive [inhibitor, partial curve] | –
Cc1nc(-c2ccc(C(=O)Nc3ccccc3F)cc2)cs1 | active: 8.91 µM | –
Cc1ccc2oc(=O)c3cnn(CC(=O)N4CCCCCC4)c3c2c1 | inconclusive [inhibitor, single point] | –
Cn1c(=O)n(C)c2cc(S(=O)(=O)Nc3ccccc3O)ccc21 | – | inactive: -2.97%
C=C(C)C1Cc2c(C)nn(-c3cccc4ccccc34)c2C1 (stereo not drawn) | inconclusive [inhibitor, single point] | –
O=C(NC(=S)NNC(=O)c1ccco1)c1ccc(Br)cc1 | inconclusive [inhibitor, single point] | –
Cc1cccc(OCCn2c(=O)oc3ccc(C)cc32)c1 | – | inactive: 11.1%
CC(=O)c1ccc(NC(=O)CSc2nccn2C)cc1 | inconclusive [activator, single point] | –
CCN(CC)CCNc1ncnc2c1sc1nc(N3CCCC3)c3c(c12)CC(C)(C)OC3 | inconclusive [inhibitor, single point] | –
CCc1ccc(OC(C)C(=O)Nc2ccccc2C(=O)N2CCOCC2)cc1 (stereo not drawn) | – | inactive: -1.5%
CCOc1ccc(-n2c(SCC(=O)Nc3ccc(CC)cc3)nc3n[nH]c(C)c3c2=N)cc1 | inconclusive [inhibitor, single point] | –
O=C(NCc1ccccn1)c1cc(Cl)ccc1OCc1ccccc1 | – | inactive: -0.108%
CCOC(=O)Cn1nc(C)c(NC(=O)COc2ccc([N+](=O)[O-])cc2)c1C | – | inactive: 6.23%
Cc1ccc(/C=C/C2=NN(C)C(=O)CC2)cc1 | – | inactive: -21%
Cn1nccc1C(=O)NC1CCCc2c1cnn2-c1ccccc1F (stereo not drawn) | active: 1.41 µM | –
O=C(C1COc2ccccc2O1)N1CCN(Cc2ccc(Br)cc2F)CC1 (stereo not drawn) | – | inactive: -21.9%
C=CCNc1nc(-c2ccc(Cl)cc2)cs1 | inconclusive [inhibitor, partial curve] | –
COc1cccc(-c2nnc(NC(=O)c3ccc4ncsc4c3)o2)c1 | active: 0.562 µM | –
CC(C)(CO)N=C1NS(=O)(=O)c2cc([N+](=O)[O-])ccc21 | inconclusive [inhibitor, single point] | –
COc1ccccc1-c1nnc(SCc2ccccn2)n1C | – | inactive: 0.545%
CC1CN/C(=C\C(=O)c2ccc(Cl)cc2)C(=O)N1 (stereo not drawn) | inconclusive [inhibitor, partial curve, poor fit] | –

Compound | Potency | activity, negative = inhibition
CN(C)c1ccc(SC#N)cc1 | inconclusive [inhibitor, single point] | –
Clc1ccc(CN(Cc2ccccc2)C(c2cccs2)c2nnnn2C2CCCC2)cc1 (stereo not drawn) | inconclusive [inhibitor, single point] | –
C[C@]12C(=O)N(c3ccc(Cl)cc3)C(=O)N1[C@H]1c3ccccc3OC[C@@H]1[C@H]2c1ccccc1 | – | inactive: -2.56%
CCCOc1ccc(CC(=O)NNC(=S)Nc2ccccc2)cc1Br | inconclusive [inhibitor, single point] | –
CCOC(=O)c1c(C)oc2c1c1c(c3ccccc32)OCN(Cc2ccccn2)C1 | active: 11.2 µM | –
O=C(O)c1ccc(/C=N/NC(=O)c2cc(-c3ccc4c5c(cccc35)CC4)n[nH]2)cc1 | – | inactive: -3.13%
Oc1ccccc1C1=Nc2ccccc2N=C(c2cccs2)C1 | inconclusive [inhibitor, single point] | –
CN1C(=O)C(CC(=O)Nc2ccc(F)cc2)N(NC(=O)c2cccc(F)c2)C1=S (stereo not drawn) | – | inactive: 8.38%
CC1=NN(C(=O)c2c(Br)c(C)nn2C)C(O)(C(F)(F)F)C1 (stereo not drawn) | inconclusive [inhibitor, single point] | –
Cc1ccccc1NC(=S)NC1CCN(Cc2ccccc2)CC1 | inconclusive [inhibitor, single point] | –
COc1ccc(C2CN=NC23CCCc2ccccc2C3=O)cc1 (stereo not drawn) | – | inactive: 9.69%
COc1ccc(/C(C)=N/Nc2nc3ccccc3nc2C)cc1OC | inconclusive [inhibitor, single point] | –
COC(=O)C1=C(C)N(CCc2ccccc2)C(=O)/C1=C\c1ccco1 | inconclusive [inhibitor, single point] | –
COc1ccccc1NC(=S)NCc1ccccc1Cl | active: 7.08 µM | –
CC1CCCC(NC(=O)COC(=O)CCC2CCCC2)C1C (stereo not drawn) | active: 0.562 µM | –
NC(=O)CC(NC(=O)c1ccc(Br)cc1)c1ccc(N2CCCCCCC2)c([N+](=O)[O-])c1 (stereo not drawn) | inconclusive [inhibitor, single point] | –
Cc1cccc(-n2c(-c3ccoc3C)n[nH]c2=S)c1 | inconclusive [inhibitor, single point] | –
CC(C)(C)c1cc(C(=O)NCc2cc(F)cc3c2OCOC3)n(Cc2ccccc2)n1 | inconclusive [inhibitor, single point] | –
Cc1nc(-c2c(C(F)(F)F)noc2-c2ccc(O)cc2O)cs1 | – | inactive: -26.4%
COc1ccc(Cc2nc3ccc(C(=O)NCc4cc(C)no4)cc3o2)cc1OC | inconclusive [inhibitor, single point] | –
N#CC1=C(N)SC(N)=C(C#N)C1c1ccc(C(F)(F)F)cc1 | – | inactive: -4.33%
COC(=O)c1[nH]c2ccc(Cl)cc2c1NC(=O)c1ccccc1[N+](=O)[O-] | inconclusive [inhibitor, single point] | –
COc1cc(S(=O)(=O)N2CCCCCC2)ccc1Cl | inconclusive [inhibitor, single point] | –

Reference: PubChem BioAssay AID2546 (National Center for Advancing Translational Sciences (NCATS), 2010)
